Assay results reported in the supplement of paper PMC3334620.
Whole data set: some 33,000 sequences, median “E-score (-0.5 to 0.5)” near -0.035, cut for the highest 2% near 0.34. The list shows a part of the results.

Molecular target: T1, Mot3 (UniProt P54785)
T1 sequence: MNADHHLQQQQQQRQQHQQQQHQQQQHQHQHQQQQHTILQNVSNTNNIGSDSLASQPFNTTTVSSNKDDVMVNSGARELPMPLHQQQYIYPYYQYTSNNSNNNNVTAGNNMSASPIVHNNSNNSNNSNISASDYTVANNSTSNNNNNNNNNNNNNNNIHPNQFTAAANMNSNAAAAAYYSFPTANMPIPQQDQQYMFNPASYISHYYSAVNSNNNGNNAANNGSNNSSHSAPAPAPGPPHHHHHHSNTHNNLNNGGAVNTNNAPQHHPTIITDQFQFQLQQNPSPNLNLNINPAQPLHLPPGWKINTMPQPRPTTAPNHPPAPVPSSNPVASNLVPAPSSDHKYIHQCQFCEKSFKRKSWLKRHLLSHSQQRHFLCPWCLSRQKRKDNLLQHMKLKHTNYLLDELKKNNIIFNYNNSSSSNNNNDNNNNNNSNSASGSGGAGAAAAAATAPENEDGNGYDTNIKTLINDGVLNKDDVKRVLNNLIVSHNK
Test: PBM E-score (8-mer binding enrichment) (E-score (-0.5 to 0.5)); higher = stronger / more preferred TF binding; most listed sequences are background and not binding sites
Details: protein concentration: 200 nM; construct: GST-full length
How it was run: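 Using PURExpress in vitro transcription/translation, GST-tagged yeast transcription factors were made in full-length or DNA-binding-domain form. These were applied at about 100-200 nM to double-stranded universal all-10-mer Agilent arrays, and bound protein was detected with fluorescent anti-GST. Scans were normalised with masliner before the Universal PBM Analysis Suite assigned E-scores to ungapped eight-base words pooled with their reverse complements.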

Sequence	PBM E-score
AAGCAGTA	-0.163
CACCTAAA	0.088
CATGGTCA	0.0925
GCGTAGCC	0.0806
ACAAGCTG	0.0158
CGAGATCC	-0.301
AGGAGGTG	-0.053
CACACGCC	0.0576
CTAATTCC	-0.0244
AGGCGCAT	0.191
AGTCACGG	0.179
CGCTTTGC	-0.0483
GTCTTCTA	-0.0971
GACCCGAA	-0.128
CCTAAGGC	0.133
GATAGGCC	0.0586
GATTACCC	0.0191
CAAAATCG	-0.0102
ACGTCCCG	-0.117
ACCGCCAT	-0.159
CTTCGCCA	-0.0986
AAGCCCAC	-0.157

Sequence	PBM E-score
GCGAGACA	-0.0299
CAATCATC	-0.0597
AGTTCTGG	-0.282
CAATCATG	0.0726
ACCATGCA	-0.0491
GATTCGCA	-0.0493
CTGGCCGA	-0.335
GTACTGAA	-0.00155
ACAATGGC	0.00468
CGGATCCC	-0.381
AGACTTGC	-0.005
CTGGCAGC	-0.18
AGCATTTA	-0.102
ACGCGTCC	0.0149
AACGTGGC	0.0798
AGTATTAC	0.21
ACTCGGGA	-0.272
CGATCCGC	-0.148
GCGTGACC	-0.0907
GAATATTC	-0.0559
CACTAACG	-0.0319
CCTTCCTC	-0.124

Sequence	PBM E-score
GACCTGCC	-0.205
CGGTAAAA	0.0898
CAACCGGA	-0.0548
CAATCTAG	0.00579
AAGCCCAA	0.0352
CACAGAGA	0.0161
TGAGCTCA	0.129
AGACTGGA	-0.117
AATGTCCG	-0.141
CATCAACA	0.236
CACATGTG	0.194
AGAAATGG	-0.118
ATGATGTC	-0.013
ACTGAAAT	-0.0376
CCCTCAGG	-0.152
AGTTACTG	-0.102
CAGGAGTC	-0.238
CACAAGGC	0.2
CCTGGCTA	-0.184
ATAAGGCA	0.46
GAGCGTGA	0.0127
CTCGTGGA	-0.234

Sequence	PBM E-score
GGGAGCTA	-0.105
CGTACGCC	-0.0491
ATGAGTTG	-0.0577
ATGCGTGC	0.25
CTGTCACA	-0.0045
AAAAATTA	0.172
GAAAGCCA	-0.0213
ATGAAGAC	-0.24
AACTTTAA	0.0958
TAGCTGGA	-0.118
AAGGATCA	0.0089
GAATGTCC	-0.108
GTTGTAGA	0.21
CGTTGCTC	-0.0421
ATCCCGCG	-0.237
CGAATCGA	0.121
ACTAGGCG	0.168
TGCAAACA	0.146
TGCGATAA	0.0568
CGTACACA	0.245
